Article PMC11790949, “A multiplex method for rapidly identifying viral protease inhibitors” (Molecular Systems Biology, 2025)

The compounds below were run against HCoV-OC43-3CL (Human coronavirus OC43, UniProt P0C6X6) (assay: Multiplex pooled yeast screen (DNA-barcoded models, magratio)). Conditions: HCoV-OC43-3CL model; library screen at 25 μM; 1 = inhibition comparable to positive control.
Assay type: cell-based

| Structure (SMILES) | magratio |
| --- | --- |
| c1ccc2c(c1)-c1cccc3cncc-2c13 [NSC60419] | 0.4426 |
| N#Cc1ccc(NC2c3ccccc3CC2O)cc1 (stereo not drawn) [NSC69421] | 0.4051 |
| CCOC(=O)Nc1ccc2nc(-c3cscn3)[nH]c2c1 [NSC299514] | 0.3203 |

These compounds were tested against HCoV-NL63-PLP2 (Human coronavirus NL63, UniProt P0C6X5) in the same assay as above. Conditions: HCoV-NL63-PLP2 model; library screen at 25 μM; 1 = inhibition comparable to positive control.
Assay type: cell-based

| Structure (SMILES) | magratio |
| --- | --- |
| CNC(=O)Oc1c(C)[nH]ccc1=O [NSC287495] | 0.3129 |
| NC(N)=NC(=S)Nc1ccc(Cl)cc1 [NSC403374] | 0.3387 |
| Cc1cc(N(C)C)ccc1N=Nc1ccc2ncccc2c1 [NSC680516] | 0.2006 |
